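Compound exposure: 48 hours, 5 concentrations, 96-well plates. Abbreviation: GI50, concentration required for 50% inhibition of growth. The concentration for full growth arrest is given as TGI.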
Test system: NCI-H322M lung
Assay: NCI anticancer screen, dose series, 48 h

## O=C(Nc1ccc(-c2ccc3c(c2)NC(=O)/C3=C\c2ccc[nH]2)cc1)Nc1ccc(Cl)c(C(F)(F)F)c1
  GI50: 1.63 µM
  TGI: 11.3 µM
